Reference: paper PMC12136788
Substitutions are numbered along the chain they refer to. Some of the results follow.

T1: UNK ZnF1-3 (human, UniProt Q9C0B0 31-174)
T1 sequence: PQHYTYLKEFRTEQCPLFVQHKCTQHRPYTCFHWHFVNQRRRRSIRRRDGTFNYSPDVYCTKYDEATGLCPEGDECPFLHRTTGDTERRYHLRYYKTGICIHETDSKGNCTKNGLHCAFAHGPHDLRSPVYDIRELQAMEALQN

B1: chrX:69798090:69798091:-_ENSMUSG00000031343_ENSMUST00000055966|mus_mus|mus_mus_mus_hu_False|18_78 (ssRNA)
RNA: GGGAGUUCUACAGUCCGACGAUCAAGUCCCCGGGUUCUUGUCGUCUUGAUUCCCCUUGGCUAGUGGUUCCAGGGAGAAUAUUAAUCAGGAAAAGAAUCCCAAGGCUGGUCAUGUAAAAGUGCCACAUUUGUGUGAUUAUCAUCCAACAGAGGAUUGAGCAUCA
B2: chr5:179004091:179004092:+_ENSG00000176783_ENST00000393438|hu_mus|FALSE|FALSE (ssRNA)
RNA: GGGAGUUCUACAGUCCGACGAUCUUCAUGCUCUCUGCCGCUGUCAAGAUCCUGUGCGUCCUUCAGACAGAGAGAGAAGUCAAUCACCCCGACCUGAGAAUCCAAGUCUUCUCCCUUUAAGCAGAGGUUGGCAUCCAGAACGUUCAACAGAGGAUUGAGCAUCA
B3: chr1:245023758:245023759:-_ENSG00000153187_ENST00000283179|hu_hu|FALSE|FALSE (ssRNA)
RNA: GGGAGUUCUACAGUCCGACGAUCAGCAAAACUCUCCAUUGUAAGGGAAGAAGCACUGAGACGAUCUCUUGAUAUUUUAAAAUGUAGAUCACAAUUAUAAGUAUCAAGACAAACCACUGUGUCAUCGAAGUGUUCAUCUUCUUCCAACAGAGGAUUGAGCAUCA
B4: chr17:62499352:62499353:-_ENSG00000108654_ENST00000581693|hu_mus|motif|central (ssRNA)
RNA: GGGAGUUCUACAGUCCGACGAUCUCUUAUUUGAUCCACAAUUUUCCUUAUCUGGGGUUCAAAUCCCAUAUCAAGCAUCCGGUCAGCUUCAUCAAGGACAAGGUAAGUUGUUCUUCUCAGAUUGGUUUUCCCACACUCUAAAAACAACAGAGGAUUGAGCAUCA
B5: chr7:54825262:54825263:-_ENSG00000132432_ENST00000352861|hu_hu|hu_hu_hu_mus_False|28_28 (ssRNA)
RNA: GGGAGUUCUACAGUCCGACGAUCCUGCCGGCUGGGCUCCACAAACUGCAUUACCUGAUCCAUGUUUGUUGGAUGGCGGAUUGAGAGCGUAGAGACACGUAGCUCAGGGAGCUUGCUAGCCCAACGGAACCGGAAGCUGGCAACCAACAGAGGAUUGAGCAUCA
B6: chr17:65740002:65740003:+_ENSG00000130935_ENST00000581375|hu_hu|hu_hu_hu_mus_False|48_48 (ssRNA)
RNA: GGGAGUUCUACAGUCCGACGAUCAACAAAUCUUUCUUCCCUGGACGAACAGGAAGAUUCAUAUUAAAAAAAAUAUAUAUCCAUCAAGGAGAAUUGAGUGGCCACACCUUUACUCCCAGCACUUUGGGAGGUGGAUCUCUGAGUCAACAGAGGAUUGAGCAUCA
B7: chr22:32879901:32879902:+_ENSG00000100225_ENST00000397426|hu_mus|hu_hu_hu_mus_False|8_18 (ssRNA)
RNA: GGGAGUUCUACAGUCCGACGAUCCUCUUCCAUACUCAUGGCAUCCUGAAUUGACUCAGCUUCAACAUUUUGACUAGGCCCUUCCAUACUGUCAUCAGUCCAGGCAUCAAAUGGGGUUGCCUGUCCUUGGAAUGAAUCAGUCCCCAACAGAGGAUUGAGCAUCA
B8: chr12:39763582:39763583:-_ENSG00000139116_ENST00000544797|hu_mus|hu_hu_hu_mus_False|1_18 (ssRNA)
RNA: GGGAGUUCUACAGUCCGACGAUCCUCUAGGAACUGGGCAUUCACUUUGAAUUCAGGAGGGGGCAGCCCGUUUUUAAUCGCUGAGGUCUUUUUCUCAUCAAUACUCUUGAACAGGUGUUUAACAGCUCGAGAGAUGAUACCCAGCAACAGAGGAUUGAGCAUCA
B9: chrX:69798090:69798091:-_ENSMUSG00000031343_ENSMUST00000055966|mus_mus|FALSE|FALSE (ssRNA)
RNA: B1 RNA with G32A, U81C, A91G, U97G, C98U, C99A, G103C, G104U, U112C, G113A
B10: chr18:34480306:34480307:+_ENSMUSG00000005871_ENSMUST00000115781|mus_mus|motif|central (ssRNA)
RNA: GGGAGUUCUACAGUCCGACGAUCCUUUUACUUCUAACAUUAAUUUCUUAAAACAUGAAUUAAAAGGCAAUUGUAUUCGGACGGAAACCUCAUCUCUUUCCACAAAACUACUUGAAGUGCCUUAUAAAAACUGACGUGCAGUAACAACAGAGGAUUGAGCAUCA
B11: chr19:6374144:6374145:+_ENSMUSG00000024949_ENSMUST00000113487|mus_hu|FALSE|FALSE (ssRNA)
RNA: GGGAGUUCUACAGUCCGACGAUCGGGUCCAUUGGGGUUGUGCUGCAUGGGAUGUCCACCAUGCCCACCUGUCAGGCUGGGUAAUGGGUGUGGGAAGCUGUGGGGGCCACCUCCGGGCCCACCAGGACCACCUCCAUGCAUGCCCAACAGAGGAUUGAGCAUCA
B12: chr5:108714581:108714582:-_ENSG00000198961_ENST00000361557|hu_mus|motif|central (ssRNA)
RNA: GGGAGUUCUACAGUCCGACGAUCUGACAGGUCAGCGUAGAUCUCUGCCUCUCCAUUUUCCAGCUCAAAGACUGCACGGCCGGACCCCUUCUGAUGUCUACCACCUUCCACAGCUUCAGCGCCAAGUUGAAGAGAGCCAUUCUCCAACAGAGGAUUGAGCAUCA
B13: chr3:176767854:176767855:-_ENSG00000177565_ENST00000430069|hu_hu|hu_hu_hu_mus_False|78_78 (ssRNA)
RNA: GGGAGUUCUACAGUCCGACGAUCGACAUCCUUGUUACUGGGCACGUCCUGCCCUCCUUCUCGUAUACAGUGUCUAAGCACGAGCUGCGUAGGGCCACUCGUGCUGUUCUCACUGAGGUUCCAGAUUCUUGCCGUGGAGUCUCCCAACAGAGGAUUGAGCAUCA
B14: chr16:83842930:83842931:+_ENSG00000230989_ENST00000433866|hu_hu|motif|central (ssRNA)
RNA: GGGAGUUCUACAGUCCGACGAUCUUCUUCCACCCCAGCCUGUGUCAUGAGGUCCGCGAUAUUCUUUUCCAGAUCAUCAAUGCGACGGCUCAUAUCAUCAAUUCUCCCAAUGAUCUGGUCAGACAUGGUCUGAAAUUUAUCUUGCAACAGAGGAUUGAGCAUCA
B15: chr5:139724684:139724685:+_ENSMUSG00000036817_ENSMUST00000110883|mus_mus|FALSE|FALSE (ssRNA)
RNA: GGGAGUUCUACAGUCCGACGAUCGCCUGGAAACCUGCCAGCCUAUCUGCUUCUUGACUUUAUGCAUUCAAGCAAAUCCCUAAGUCAAAAGGAGUGUCCGAGAAUCAUACAUUCAAAUGAAUUAAAAAAGCCUCCCCGGCUUUUCAACAGAGGAUUGAGCAUCA
B16: chr18:56819859:56819860:+_ENSG00000166562_ENST00000588875|hu_mus|hu_hu_hu_mus_True|88_108 (ssRNA)
RNA: GGGAGUUCUACAGUCCGACGAUCAACUUUGAUUACUCUGUGAACUAUUGGAAUGUCUCUUCCUUCAACCUUAAAAACAACUAUUUCACCAGCUCUGAUGGGGUCCUCCCGGAAAUUCGUGAGGAACAGCAGAUCUCCUCUGUGCAACAGAGGAUUGAGCAUCA
B17: chr9:31209820:31209821:+_ENSMUSG00000042185_ENSMUST00000086167|mus_hu|motif|central (ssRNA)
RNA: GGGAGUUCUACAGUCCGACGAUCUUCUUGCUUACAGAAGGCCUGAUCUUUGGUCUCUAGCCAUAGCUGGAAGAGGGCAGCGGAUUCCUUUUCAUUAUCUUGGGAUUGGCCAAGCAACUUCCACUGCUGGGUUUUCUCUUUGAACAACAGAGGAUUGAGCAUCA
B18: chrX:71549400:71549401:+_ENSMUSG00000019087_ENSMUST00000019231|mus_hu|mus_mus_mus_hu_False|1_1 (ssRNA)
RNA: GGGAGUUCUACAGUCCGACGAUCGCAGUAGGAAGAGGGAAGCUCUUCAGUCCAGUGCGCUGCAGGGUGGGAAAGCAACAACACGGACACCGUCCCACCCUCAACCCCCCCACUGGCACAGGGUCACACAAUCUGGGAAGUGAUCAACAGAGGAUUGAGCAUCA
B19: chr4:39523128:39523129:-_ENSG00000109814_ENST00000316423|hu_hu|FALSE|FALSE (ssRNA)
RNA: GGGAGUUCUACAGUCCGACGAUCACAUGUGGGUCCUCCAACAUAGCCUGCACCGAUGCAACAGAUCUUCUUAAUUUCAAACAUGAUUGUACCACUUCCCAGCAGCAAGCGCAGGGACCGCUCCUAUCCCGAUCGUUCGGACAGCAACAGAGGAUUGAGCAUCA
B20: chr12:120565580:120565581:-_ENSG00000089154_ENST00000300648|hu_hu|motif|central (ssRNA)
RNA: GGGAGUUCUACAGUCCGACGAUCUGGAGGAGGCAAUUUUCAGUUGUGUGUGGGUUUGAUUUAAGGCUUUGGCUGUGGUCGGUUGAUAUUAAAAUACUUUCUGGGAACGCCAUCUUCCAAGCUCCCCAUUGGAACAAAUGUAUUCAACAGAGGAUUGAGCAUCA
B21: chr4:17845017:17845018:+_ENSG00000109805_ENST00000514176|hu_mus|hu_hu_hu_mus_False|8_18 (ssRNA)
RNA: GGGAGUUCUACAGUCCGACGAUCGCUCUCUUAACUUGUAUCUUCAUUAAGGAACUCUGCAAGGUUAAGUUUACUUUUCUGUAGCGCAGCUGUUUUGGCUCGUCUGGGUAAUCUCAUUUCAUUUCUGAUUCUGGUUCCAUGAUCCAACAGAGGAUUGAGCAUCA
B22: chr22:46125322:46125323:+_ENSG00000130638_ENST00000252934|hu_mus|motif|central (ssRNA)
RNA: GGGAGUUCUACAGUCCGACGAUCAAAGAUAGAGAUGUCAUCCUUUGUCAGCUGCUCCUCACCCACUAGCUUGGCGGUCACGGUGUCGGACAGUGUGAUCCUUUCCUGGUUGCUGAGUUUGCCAUACAUAGCUUCCACCAGUUCCAACAGAGGAUUGAGCAUCA

What follows are binders tested against T1, UNK ZnF1-3 (assay: nsRBNS (natural sequence RNA bind-n-seq); RBNS binding buffer (assumed for nsRBNS): 25 mM Tris pH 7.5, 150 mM KCl, 3 mM MgCl2, 0.01% Triton X-100, 500 ug/ml BSA, 20 U/ml SUPERase-In, 4 C; UNK is unkempt and MSI1 is Musashi-1; names of the RNAs are library labels; protein concentration not given here; high values mean tight binding).

Row | Binder | binding signal
1 | B1 | 0.571 enrichment R
2 | B2 | 1.12 enrichment R
3 | B3 | 1.77 enrichment R
4 | B4 | 0.744 enrichment R
5 | B5 | 1.31 enrichment R
6 | B6 | 1.75 enrichment R
7 | B7 | 1 enrichment R
8 | B8 | 1.56 enrichment R
9 | B9 | 0.872 enrichment R
10 | B10 | 0.749 enrichment R
11 | B11 | 0.663 enrichment R
12 | B12 | 1.13 enrichment R
13 | B13 | 0.355 enrichment R
14 | B14 | 0.55 enrichment R
15 | B15 | 0.951 enrichment R
16 | B16 | 0.76 enrichment R
17 | B17 | 0.595 enrichment R
18 | B18 | 1.43 enrichment R
19 | B19 | 1.32 enrichment R
20 | B20 | 1.43 enrichment R
21 | B21 | 0.366 enrichment R
22 | B22 | 0.811 enrichment R
